# Source: publication PMC4336329 (PLoS ONE, 2015)
# Hit rate of the full screen: of about 310,000 compounds, about 2,200 (0.71%) showed an effect of 50% or more. Effects have a minus sign here. Some of the results follow.
# Target: human ether-à-go-go-related gene (hERG) potassium channel (human, UniProt Q12809)
# Assay: primary screen, population patch clamp on CHO cells stably expressing hERG
# Chain of human ether-à-go-go-related gene (hERG) potassium channel (Q12809 whole entry, looked up): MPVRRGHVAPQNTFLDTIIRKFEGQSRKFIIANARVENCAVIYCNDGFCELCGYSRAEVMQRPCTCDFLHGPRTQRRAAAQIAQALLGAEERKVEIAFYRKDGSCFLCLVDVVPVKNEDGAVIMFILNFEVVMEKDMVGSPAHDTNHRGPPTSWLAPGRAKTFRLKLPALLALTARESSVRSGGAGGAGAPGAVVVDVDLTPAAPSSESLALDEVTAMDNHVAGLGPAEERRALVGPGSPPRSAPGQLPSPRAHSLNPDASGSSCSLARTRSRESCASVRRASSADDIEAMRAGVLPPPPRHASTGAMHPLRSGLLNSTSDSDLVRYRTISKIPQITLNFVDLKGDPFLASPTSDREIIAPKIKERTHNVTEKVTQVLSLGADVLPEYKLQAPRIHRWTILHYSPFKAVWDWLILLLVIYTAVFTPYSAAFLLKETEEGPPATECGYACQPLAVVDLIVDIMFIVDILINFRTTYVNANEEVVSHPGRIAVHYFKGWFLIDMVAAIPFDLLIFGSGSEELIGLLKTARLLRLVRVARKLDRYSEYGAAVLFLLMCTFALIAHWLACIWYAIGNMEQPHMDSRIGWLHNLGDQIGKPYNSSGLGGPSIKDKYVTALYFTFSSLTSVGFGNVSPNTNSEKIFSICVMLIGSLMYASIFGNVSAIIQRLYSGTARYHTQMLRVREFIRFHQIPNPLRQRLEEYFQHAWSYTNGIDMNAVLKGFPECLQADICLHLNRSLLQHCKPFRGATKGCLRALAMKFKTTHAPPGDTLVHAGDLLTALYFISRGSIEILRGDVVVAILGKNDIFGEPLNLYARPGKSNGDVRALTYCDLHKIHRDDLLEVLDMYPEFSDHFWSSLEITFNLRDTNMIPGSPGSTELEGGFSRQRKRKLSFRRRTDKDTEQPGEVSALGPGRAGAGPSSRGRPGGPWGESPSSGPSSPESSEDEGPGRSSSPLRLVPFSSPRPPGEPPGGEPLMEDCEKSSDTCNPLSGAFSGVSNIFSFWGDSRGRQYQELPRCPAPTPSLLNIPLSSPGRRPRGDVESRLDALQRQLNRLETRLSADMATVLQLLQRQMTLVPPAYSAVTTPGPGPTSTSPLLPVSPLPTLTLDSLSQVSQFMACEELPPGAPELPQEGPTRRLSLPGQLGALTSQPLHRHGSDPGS
row,SMILES,"hERG current change (%, negative = inhibition) at 1uM"
1,CN1C(=O)NC(c2ccc(O)cc2)C(C(=O)c2cccs2)C1(O)C(F)(F)F (centres unmarked),-10.9%
2,CC1=NNC(=O)C1CC(=O)N/N=C/c1ccncc1 (centres unmarked),9.92%
3,N=C1C(c2ccccc2)=C(O)CN1c1cccc(S(=O)(=O)N2CCOCC2)c1,7.42%
4,COc1ccc(S(=O)(=O)NCCC(C)C)cc1C,4.62%
5,COc1ccc(C2CC(c3ccccc3)Nc3nc(NC(=O)c4ccco4)nn32)cc1 (centres unmarked),2.75%
6,CCCc1cc(C(=O)Nc2cnn(Cc3ccc(F)cc3)c2)no1,10.5%
7,CCCCNC(=S)NNC(=O)C1=NN(c2cc(C)ccc2C)C(=O)CC1,12.3%
8,CC1CN(S(=O)(=O)c2ccc(C(=O)N(CCCN(C)C)c3nc4cc5c(cc4s3)OCCO5)cc2)CC(C)O1.Cl (centres unmarked),-3.66%
9,COC(=O)C1=NN(C(=O)c2ccc(Cl)cc2)C(O)(c2ccccc2)C1 (centres unmarked),9.81%
10,Cc1nc2scc(-c3cccs3)c2c(=O)n1N,-2.08%
11,COc1ccc(N2CCN(C(=O)c3ccccc3NC(=O)C3=C(C)OCCS3)CC2)cc1,7.8%
12,COc1ccc(C2/C(=C(/O)c3ccc(C)cc3)C(=O)C(=O)N2C)cc1 (centres unmarked),-3.32%
13,COc1cc(CCC(=O)N2CC(C)OC(C)C2)cc(OC)c1OC (centres unmarked),12.2%
14,Cc1ccc2nc(SCC(=O)c3ccccc3)nc(=O)n2c1,11.3%
15,CCOC(=O)c1sc2nc(SCC(=O)NCc3ccco3)n(Cc3ccccc3)c(=O)c2c1C,16.7%
16,CCn1c(N2CCN(CC(=O)c3c(C)n(C)c4ccc(OC)cc34)CC2)nc2c1c(=O)[nH]c(=O)n2C,8.49%
17,O=C(CSc1ccccc1)N(c1ccc(Br)cc1)c1nccs1,8.72%
18,C=CCOc1cccc(C2C(C(=O)c3ccc(C)o3)=C(O)C(=O)N2Cc2ccncc2)c1 (centres unmarked),11.7%
19,CN1C(=O)C(=Cc2ccc(N3CCCCCC3)cc2)C(=O)N(C)C1=O,12.4%
20,CC(C)OC(=O)c1nnc(-c2ccccc2)nc1OC(C)C,2.17%
21,NC(=O)c1ccccc1NC(=O)CSc1cn[nH]n1,10.4%
22,COc1ccc(S(=O)(=O)Cc2ccc(C(=O)N3CCN(c4ccccn4)CC3)o2)cc1,-15.8%
23,COC(=O)c1onc(-c2ccccc2)c1C(=O)OC,11.8%

row,SMILES,"hERG current change (%, negative = inhibition) at 1uM"
1,COC(=O)c1ccc(CSc2ccc3nnc(-c4ccc(OC)c(OC)c4)n3n2)o1,-0.756%
2,COc1ccccc1NC(=O)CCc1nc2ccccc2s1,6.84%
3,O=C(O)Cn1ccc2cc(S(=O)(=O)N3CCCCCC3)ccc21,17%
4,COc1ccc(S(=O)(=O)CCC(=O)Nc2c(C)cccc2C)cc1,16.3%
5,N#Cc1nc(-c2ccco2)oc1NCc1ccc(F)cc1,7.5%
6,CN1CCCN(Cc2ccccc2Br)CC1,14.7%
7,COc1ccc(NC(=O)c2cc3ccccc3o2)cc1OC,12%
8,CCN(CC)CCCC(C)NC(=O)c1c(NC(=O)c2ccccc2)sc2c1CCCC2.O=C(O)C(=O)O (centres unmarked),-31.6%
9,COCCNC(=O)C(c1cccs1)N(C(=O)Cn1nnc2ccccc21)c1ccc2c(c1)OCO2 (centres unmarked),-4.12%
10,O=C(Cc1c(Cl)cccc1Cl)NCCc1ccc(Cl)cc1,10.3%
11,C/C(=N\Nc1ccc2nncn2n1)c1cccs1,9.89%
12,COc1ccc(/C=C/C(=O)NC(=S)NNC(=O)c2cc(OC)c(OC)c(OC)c2)cc1,15%
13,COc1ccc(NC(=O)c2oc3ccccc3c2NC(=O)c2ccc3c(c2)OCO3)cc1,20.4%
14,Cc1cc(C(N)=O)c2ccccc2n1,21.2%
15,COc1ccc([N+](=O)[O-])cc1NC(=O)CS(=O)(=O)c1ccc(C)cc1,7.52%
16,Cc1ccc(S(=O)(=O)N(C)CC(=O)OCC(=O)NC(=O)NC(C)C)cc1,-0.686%
17,Cc1ccc(C(=O)Nc2nnc(S(=O)(=O)N3CCOCC3)s2)cc1,15.6%
18,C/C(=N\NC(=O)c1ccc(Br)cc1)C1C(=O)c2ccccc2C1=O,18%
19,CC(=O)c1c(N2CCOCC2)nc(=S)n(-c2ccc([N+](=O)[O-])cc2)c1C,-7.48%
20,CCCCOc1ccc(N2CC(C(=O)NCCc3ccc(OC)c(OC)c3)CC2=O)cc1 (centres unmarked),11.1%
21,COc1ccc(C(=O)C2CCN(S(=O)(=O)c3ccc4c(c3)OCCO4)CC2)cc1,6.44%
22,CCn1c(SCC(=O)N2CCCC(C)C2)nnc1-c1ccc(S(=O)(=O)N2CCN(C)CC2)cc1 (centres unmarked),1.55%
23,N=C1/C(=C/c2cccn2CCOc2ccccc2)C(=O)N=C2SC=C(c3ccccc3)N12,6.81%

row,SMILES,"hERG current change (%, negative = inhibition) at 1uM"
1,CN(CC(=O)NCc1ccccc1)Cc1cccc(F)c1.O=C(O)C(=O)O,6.93%
2,COc1ccc2c(c1)C(=O)N1[C@H]3c4cc(Br)ccc4OC[C@@H]3[C@H](c3ccccc3)[C@]1(C)C(=O)N2,16.4%
3,CC(C)=CC(=O)N1CCCc2ccccc21,9.57%
4,O=C(O)CCCC(=O)OCCCCc1cccs1,1.33%
5,Cc1cc(=O)[nH]c(SCC(=O)Nc2nnc(SCc3ccccc3)s2)n1,21.6%
6,O=C(O)/C=C\C(=O)Nc1ccccc1C(=O)N1CCN(c2ccc(Cl)cc2)CC1,1.1%
7,COc1ccc(-c2ncccc2OC(=O)C23CC4CC(CC(C4)C2)C3)cc1OC.Cl,5.56%
8,O=C(CCN1C(=O)C2CCCCC2C1=O)Nc1ccc(F)c(F)c1F (centres unmarked),2.77%
9,COc1ccc(C)cc1NC(=O)c1ccc(S(=O)(=O)N2CCOCC2)cc1,9.7%
10,Cc1cccc(N2C(=NC(=O)c3ccccc3)SC3CS(=O)(=O)CC32)c1 (centres unmarked),15.9%
11,CN1CCN(c2ccc(NC(=O)c3ccccc3Br)cc2)CC1,9.75%
12,O=C(c1ccc2[nH]c(=O)c(=O)[nH]c2c1)N1CCN(Cc2ccccc2)CC1,15.4%
13,Cc1ccccc1NC1=C(Cl)C(=O)OC1OC(=O)c1ccccc1C (centres unmarked),9.9%
14,CC(CNC(=O)CCn1ccc2cc(S(=O)(=O)N3CCCC3)ccc21)c1ccccc1 (centres unmarked),6.46%
15,CC(=O)c1c(C)[nH]c(-c2ccccc2)nc1=S,13.3%
16,CC(C)(C)C(=O)COC(=O)c1ccc(N)c([N+](=O)[O-])c1,8.06%
17,CCCCOCCCNC(=O)c1ccc2c(c1)OCO2,-3.39%
18,CCCCn1c(N)c(N(CCOC)C(=O)COC(=O)C(C)Oc2ccc(Cl)cc2)c(=O)[nH]c1=O (centres unmarked),15%
19,CNC(=S)Nn1cnc2ccccc21,-1.41%
20,CCOc1ccc(S(=O)(=O)Nc2ccc3c(c2)n(C)c(=O)n3C)cc1,14.4%
21,COC(=O)c1sc(N)c(C(=O)OC)c1CSc1nc2sc3c(c2c(=O)n1C)CCC3,-3.33%
22,COc1ccc2c(c1)c(C(C)=O)c(C)n2-c1ccccc1,4.05%
23,OCC[C@H]1C[C@H](O)[C@@H](O)[C@]2(OCc3ccccc32)O1,17%

row,SMILES,"hERG current change (%, negative = inhibition) at 1uM"
1,Cc1cc(C)cc(NC(=O)N2CCN(Cc3ccc4c(c3)OCO4)CC2)c1,-25.7%
2,COC(=O)c1sccc1NC(=S)Nc1cccc(F)c1,14.3%
3,O=S(=O)(NCc1nc(-c2ccccc2)no1)c1ccc(F)cc1,6.88%
4,O=C(O)c1ccccc1O,13.2%
5,CCOC(=O)C1=C(COC(=O)C2(C)CC2(Cl)Cl)NC(=O)NC1c1ccccc1 (centres unmarked),12.3%
6,C=CCn1c(SCC(=O)Nc2cc(C)on2)nc2sc(C)c(C)c2c1=O,1.37%
7,CCN1CCN(C(=O)c2cc3c(=O)n(C)c4ccccc4c3n2C)CC1,8.54%
8,Cc1cc(C)n(CC(C)(O)c2ccccc2)n1 (centres unmarked),12.8%
9,O=[N+]([O-])c1ccc(N2CCOCC2)cc1NCCCO,18%
10,CCCC(=O)Nc1cccc(S(=O)(=O)N(C)c2ccccc2)c1,4.57%
11,Cc1ccc(C)c(C(=O)CN2C(=O)CCC2=O)c1,7.07%
12,CS(=O)(=O)N(CC(=O)NC1CCCC1)C1CCCCC1,8.35%
13,O=C(Cn1cc(C(=O)c2ccccc2F)c2ccccc21)NCc1ccco1,10.9%
14,O=C(Oc1cccc(Nc2ncnc3ccccc23)c1)c1ccccc1Cl,14.7%
15,O=C(Nc1ccc(C(=O)OC2CCCCC2)cc1)c1ccncc1,11.7%
16,CC1CN(C(=O)CCC(=O)NCc2ccc(F)cc2)c2ccccc2S1 (centres unmarked),3.73%
17,COc1c2c(nc3occc13)C(CCC(C)(C)O)(OC)C(O)CC2 (centres unmarked),8.17%
18,Cc1nc2ccccc2c(=O)n1-c1ccc(Cl)cc1Cl,5.22%
19,CCNc1nc(-c2cc3ccccc3o2)cs1,8.29%
20,CCOC(=O)c1nnn(-c2nonc2N)c1CS(=O)(=O)c1ccccc1,12.1%
